Assay results from PubChem BioAssay AID1159614 (National Center for Advancing Translational Sciences (NCATS), 2016).
The whole screen tested about 45,000 compounds, of which about 65 (0.1%) were called active. The call rests on the fitted dose curve; in most records, active means well fitted activation curve with a large enough effect; inconclusive means small, poorly fitted or top-dose-only effect; inactive means no such curve, though single readings can be large or run the other way. The list shows a part of the results.

Target: Galactocerebrosidase (Homo sapiens) (UniProt P54803)
Experiment: A Novel Cell-Based Assay to Identify Small Molecules for B -Galactocerebrosidase; further: 0% is about no effect; nearly all actives have a fitted effect of over 65% in size
Conditions: 145M-Twi-hGALC-G270D cells (Twitcher mouse brain line with human GALC G270D), HMU-beta-Gal fluorescence, 48 h; series mostly up to 57.5 µM; activation: at the top concentration
Procedure, shortened: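 Live 145M-Twi cells (Twitcher mouse brain-derived, GALC-null) stably expressing human GALC-G270D, with a wild-type GALC line, were compound-treated. Residual GALC activity was then read as fluorescence from 0.1 mM final HMU-β-gal at pH 5.2; higher signal means activation.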

Chain of UniProt P54803 (P54803 whole entry, looked up): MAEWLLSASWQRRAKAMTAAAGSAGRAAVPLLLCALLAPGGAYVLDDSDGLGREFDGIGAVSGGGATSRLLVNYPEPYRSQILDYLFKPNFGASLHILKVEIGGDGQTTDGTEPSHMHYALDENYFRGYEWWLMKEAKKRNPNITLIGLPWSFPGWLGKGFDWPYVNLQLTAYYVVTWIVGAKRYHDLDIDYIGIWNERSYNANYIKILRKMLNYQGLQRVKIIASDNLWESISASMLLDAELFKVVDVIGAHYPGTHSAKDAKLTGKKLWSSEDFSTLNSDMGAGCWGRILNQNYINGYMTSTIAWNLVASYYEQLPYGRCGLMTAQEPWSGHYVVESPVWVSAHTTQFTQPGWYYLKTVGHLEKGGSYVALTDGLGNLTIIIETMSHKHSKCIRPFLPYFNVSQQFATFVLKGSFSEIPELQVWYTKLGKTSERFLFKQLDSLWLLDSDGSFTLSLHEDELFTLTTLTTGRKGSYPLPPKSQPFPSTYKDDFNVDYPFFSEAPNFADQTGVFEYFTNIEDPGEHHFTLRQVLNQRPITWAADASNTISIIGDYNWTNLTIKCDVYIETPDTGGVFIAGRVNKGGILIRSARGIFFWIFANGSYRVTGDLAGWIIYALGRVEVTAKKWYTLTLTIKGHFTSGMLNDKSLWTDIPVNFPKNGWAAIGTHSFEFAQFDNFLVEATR

activation, inactive:
CCCCN(CCCC)C(=O)c1c[nH]c2ccc(S(=O)(=O)Nc3cccc(Cl)c3C)cc2c1=O -6.67%
CCN1CCN(C(=O)Cn2ncc3c4ccccc4n(Cc4c(C)cc(C)cc4C)c3c2=O)CC1 -21.6%
Cc1nc(-c2ccc(S(=O)(=O)NCc3ccccc3Cl)cc2)co1 -4.95%
CCc1ccccc1NC(=O)Cn1c(=O)n(-c2ccc(C)cc2)c(=O)c2cc(OC)c(OC)cc21 -7.77%
COC(=O)c1scc(-c2ccc(C)cc2)c1S(=O)(=O)N1CCN(c2cccc(Cl)c2)CC1 -14.5%
O=C(NO)c1ccccc1 -13.2% [at 114 µM]
CCN(CCCNC(=O)Cn1ncc2c([nH]c3ccccc32)c1=O)c1cccc(C)c1 -5.44%
O=C(O)/C=C/c1ccc(Cn2ccnc2)cc1 -12.7%
CCc1ccccc1Nc1sc(C(=O)c2ccccc2)c(N)c1S(=O)(=O)c1ccccc1 -7.96%
CCCCN(CC)C(=O)CSc1nc2c(sc3ccccc32)c(=O)n1CCc1ccccc1 0.273%
CN(C)C(=O)c1ccc(S(=O)(=O)NCc2ccc(Cl)cc2)s1 -8.39%
COc1ccc(C(=O)NCc2cn3ccc(C)cc3n2)cc1 -8.25%
Cc1c(C(=O)Nc2c(F)cccc2F)sc2ncn(Cc3ccccc3F)c(=O)c12 -8.52%
Cc1ccc(S(=O)(=O)c2nc(-c3cccs3)oc2N2CCC(C)CC2)cc1 -18.1%
Cn1c(=O)sc2cc(NS(=O)(=O)c3ccc(C(C)(C)C)cc3)ccc21 -16.8%
CC(=O)N1CCc2c(sc3c2c(=O)n(-c2ccccc2C)c(=O)n3CC(=O)Nc2ccccc2)C1 -15.3%
CCC1CN(S(=O)(=O)c2cc(-c3cc(C)no3)ccc2OC)c2cc(Cl)ccc2O1 (stereo unspecified) -9.16%
O=C1CN(C(=O)c2ccc(S(=O)(=O)N3CCCC3)cc2)C(c2ccc(F)cc2)c2cc(Br)ccc2N1 (stereo unspecified) -3.57%
COC(=O)c1ccccc1NC(=O)NCc1ccc2c(c1)CCN2C(=O)c1ccccc1 -11.3%
O=S(=O)(NCCc1csc2nc(-c3ccc(Cl)cc3)nn12)c1cccs1 -0.544%
Cc1ccc2c(c1)N(C(=O)N1CCC(C(=O)Nc3cccc(F)c3)CC1)CCO2 -5.73%
CC(C)CC(=O)NC1CC(=O)N(c2ccc3c(c2)OCCO3)C1 (stereo unspecified) -10.6%
CCCCNC(=O)CSc1nc2cc3c(cc2c(=O)n1CCCC(=O)NCc1ccc(OC)cc1)OCO3 -6.75%
CN(Cc1ccccc1)c1nc2c(S(=O)(=O)c3cccc(Cl)c3)nnn2c2ccsc12 -20.2%
Cc1ccc2c(c1)N(C(=O)CCC(=O)NCc1ccccc1F)CC(C)O2 (stereo unspecified) -17.5%
O=C(COc1ccc(Cl)cc1)OCc1cc(=O)n2nc(C3CCCCC3)sc2n1 -15.7%
Cc1cc(C)cc(NC(=O)[C@H]2O[C@@H]3OC(C)(C)O[C@@H]3[C@H]3OC(C)(C)O[C@H]32)c1 -9.2%
CCOC(=O)c1ccc2c(c1)N(Cc1cc(C)ccc1C)C(=O)c1ccccc1S2(=O)=O -2.7%
CCc1ccccc1NC(=O)CN(c1cc(C(F)(F)F)ccc1Cl)S(=O)(=O)c1ccccc1 -5.63%
O=c1c2oc3ccccc3c2n(Cc2ccccc2Cl)c(=O)n1Cc1ccc2c(c1)OCO2 7.26%
COc1cc(Nc2nc3c(S(=O)(=O)c4ccccc4)nnn3c3ccc(Cl)cc23)cc(OC)c1 4.87%
COc1ccccc1Nc1cc(C(=O)NCCCN(C)C2CCCCC2)c2ccccc2n1 1.47%
Cc1ccsc1CN(Cc1ccco1)c1cnc(S(C)(=O)=O)nc1C(=O)Nc1ccc(Cl)cc1 -11.1%
Cn1c(=O)oc2cc(S(=O)(=O)CCC(=O)NCc3ccc(Cl)cc3)ccc21 -18%
Clc1cccc(Nc2ncnc3c2nc2n3CCCCC2)c1 -22.6%
Cc1ccccc1C(=O)N1CCC(c2nc(-c3ccc(S(=O)(=O)N4CCCC4)cc3)no2)CC1 -0.866%
Cc1ccc(NS(=O)(=O)c2ccc(-n3cccn3)cc2)c(Br)c1 -14.5%
Cc1cccc(C(=O)Nc2ccc(OCc3cc(=O)n4ccc(C)cc4n3)cc2)c1 0.519%
COc1ccc(Nc2nc3ccccc3n3c(N)nnc23)cc1 -8.99%
COc1ccc(-c2cn3nc(SCC(=O)Nc4cccc(C)c4C)ccc3n2)cc1 -23.9%
CCOCCn1ccc2c(OCC(=O)Nc3cc(C)cc(C)c3)cccc2c1=O -18.3%
Cc1ccc(NC(=O)N2CC=C(c3c[nH]c4ccccc34)CC2)cc1Cl -14.5%
CC1CCN(C(=O)CN2CC(C)Sc3ccccc32)CC1 (stereo unspecified) -9.69%
Cc1cccc(N2CCn3c2nc2c3c(=O)n(CCCc3ccccc3)c(=O)n2C)c1 8.33%
COc1cc2c(C(=O)N(C)c3cccc(C(F)(F)F)c3)cn(CC(C)C)c(=O)c2cc1OC -16%
Cc1oc(-c2cccc(Cl)c2)nc1Cn1c(SCc2ccc(F)cc2)nc2cccnc21 0.356%
Cc1ccc(C(c2sc3nc(-c4ccco4)nn3c2O)N2CCN(c3ccc(F)cc3)CC2)cc1 (stereo unspecified) -1.94%
CCCCN(C)C(=O)CCC(=O)NNc1nc2ccccc2c2nc(C)nn12 2.44%
CCC(Nc1ccc(-c2nc(-c3ccccn3)no2)cc1[N+](=O)[O-])c1ccccc1 (stereo unspecified) -20.9%
COc1cc2c(cc1OC)C(COc1cc(C)cc(C)c1)N(C(=O)C(C)(C)C)CC2 (stereo unspecified) -18.5%
CCc1ccc(S(=O)(=O)c2nnn3c2nc(N(CC)Cc2ccccc2)c2cc(Cl)ccc23)cc1 -12.8%
Cc1cc2n(n1)CCCN2C(=O)Nc1ccccc1C(F)(F)F -10.8%
O=C(CCCCCn1c(=O)c2sccc2n(CC(=O)Nc2ccccc2F)c1=O)NCc1ccc2c(c1)OCO2 -23.4%
CCC(C)OC(=O)/C(C#N)=C/c1ccc(-c2ccc(Br)cc2)o1 (stereo unspecified) -16.8%
Cc1ccc(C2CC(=O)Nc3c2c(C)nn3-c2nc(C)cc(C)n2)c(C)c1 (stereo unspecified) -12.2%
COc1cc(CN(C(=O)COc2ccccc2)c2ccccn2)cc(OC)c1OC -31.7%
CSc1ncc(C(=O)Nc2ccc(C(C)=O)cc2)c(-c2ccccc2)n1 -16.1%
COc1ccc(NC(=O)c2cn3c4c(ccc(Cl)c4c2=O)OC(C)C3)cc1OC (stereo unspecified) -10.5%
COc1ccc(N(Cc2cccs2)C(=O)COc2cc(C)c(Cl)c(C)c2)cc1 6.96%
CCOc1ccc2nc(NC(=O)c3cc(=O)c4cc(C)cc(C)c4o3)sc2c1 -1.08%
COc1ccc(-c2noc(-c3cccc(OC)c3OC)n2)cc1 -1.7%
